The campaign covered roughly 150,000 compounds. About 6,500 (4.3%) were called active. The shares of active, inactive and inconclusive entries below differ from those in the screen. Calls come from the whole dose curve; as a rule, active = well fitted inhibition curve with a large enough effect (not every such curve was filed as active); inconclusive = small, poorly fitted or top-dose-only effect, or another doubt; inactive = no such curve, though single readings can be large or run the other way. Potencies of inconclusive entries are left out as doubtful fits.
biological target: 15-hydroxyprostaglandin dehydrogenase [NAD(+)] (Homo sapiens) (UniProt P15428); assay: qHTS Assay for Inhibitors of HPGD (15-Hydroxyprostaglandin Dehydrogenase); conditions: purified HPGD, NADH fluorescence kinetic, PGE2 substrate; activity change, negative = inhibition: active compounds read low
Method in brief: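 NADH formation kinetics: reaction with 30 uM PGE2 and 1 mM NAD+ (final), 20 nM enzyme, Tris-HCl pH 8 with Tween 20, after 15 min compound preincubation at room temperature. Fluorescence change, last versus first of five reads.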
% is set by controls: 0 for no effect and ±100 for the full control effect; potency is the fitted concentration of half-maximal effect; tags give direction and shape of the fitted curve.

Sequence of UniProt P15428 (P15428 whole entry, looked up): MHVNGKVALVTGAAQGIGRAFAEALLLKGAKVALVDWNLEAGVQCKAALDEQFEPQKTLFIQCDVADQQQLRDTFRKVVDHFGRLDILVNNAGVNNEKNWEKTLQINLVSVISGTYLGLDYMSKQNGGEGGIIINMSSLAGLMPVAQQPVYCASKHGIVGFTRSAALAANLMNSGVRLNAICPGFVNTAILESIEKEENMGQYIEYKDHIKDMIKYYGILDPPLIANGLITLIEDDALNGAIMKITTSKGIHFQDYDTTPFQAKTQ

SMILES	Potency	activity change, negative = inhibition
Cc1cc(/C=N/n2c(COc3ccccc3)nc3ccccc3c2=O)c(O)c([N+](=O)[O-])c1	inconclusive [inhibitor, full curve, poor fit]	–
CCCc1n[nH]c2c1/C(=N/O)CC(c1ccccc1)C2 (configuration not stated)	active: 7.08 µM	–
O=C(CSc1ncn(-c2ccccc2)n1)N1CCc2ccccc21	inconclusive [inhibitor, single point]	–
CN(C)c1ccnc2sc(C(N)=O)c(N)c12	–	inactive: -24.5%
CCCSc1ncnc2c1oc1ccccc12	active: 20 µM	–
Cc1ccc(C=Nc2ccccc2C(N)=O)cc1	inconclusive [inhibitor, partial curve]	–
O=C(NCCC1=CCCCC1)C(=O)c1c[nH]c2ccccc12	–	inactive: -15.2%
O=C(Nc1ccc(N2CCOCC2)c(Cl)c1)c1cccc(F)c1	inconclusive [inhibitor, partial curve, poor fit]	–
C=CCn1c(C)cc(C2=NNC(=NC(C)(C)C)SC2)c1C	–	inactive: -17.6%
COc1ccc(NC(=O)CNS(=O)(=O)c2cccc3nonc23)c(OC)c1	inconclusive [inhibitor, single point]	–
Cc1ccc(C2CC(c3cccs3)=NN2C(=O)CSc2nc3ccccc3o2)cc1 (configuration not stated)	inconclusive [inhibitor, partial curve]	–
CCn1c(=N)n(CC(=O)C23CC4CC(CC(C4)C2)C3)c2ccccc21	inconclusive [inhibitor, single point]	–
CSc1c(SCc2ccccc2)cnn(Cc2ccccc2)c1=O	active: 25.1 µM	–
CCOC(=O)c1c(N)sc(C)c1-c1ccccc1	active: 25.1 µM	–
Cc1ccc(S(=O)(=O)/N=C/N(C)C)cc1	–	inactive: -7.45%
COc1ccc(-c2cc(NCCc3ccncc3)n3ncnc3n2)cc1	inconclusive [inhibitor, partial curve]	–
c1csc(Cn2nnnc2CN2CCN(c3nc4ccccc4s3)CC2)c1	–	inactive: -8.55%
CC(=O)Nc1ccc(S(=O)(=O)Oc2ccc3c(c2)C(C)=CC(C)(C)N3)cc1	–	inactive: -28.2%
O=c1[nH]c2ccccc2nc1Cc1ccccc1	inconclusive [inhibitor, partial curve]	–
COC(=O)c1c(NC(=O)C2CC2)sc2c1CCCC2	–	inactive: -11.1%
O=C(Nc1ccc2oc(-c3ccccc3)nc2c1)c1ccco1	inconclusive [inhibitor, single point]	–
O=C(COc1ccccc1)Nc1nccs1	inconclusive [inhibitor, partial curve]	–
O=[N+]([O-])c1ccccc1N=Nc1c(O)[nH]c2ccc(S(=O)(=O)O)cc12	active: 3.98 µM	–
CCCc1nc2oc3cc(OC)ccc3c(=O)c2c(=O)n1Cc1ccco1	–	inactive: -22%

SMILES	Potency	activity change, negative = inhibition
CCOc1ccc(S(=O)(=O)c2c(C(=O)c3ccc(C)cc3)cnc3cc4c(cc23)OCCO4)cc1	inconclusive [inhibitor, partial curve]	–
CCCCN1CCc2c([nH]c3ccccc23)C1=O	inconclusive [inhibitor, single point]	–
Cc1cc(=O)oc2cc(OCC(=O)OCC(=O)NCc3ccc4c(c3)OCO4)ccc12	inconclusive [inhibitor, partial curve]	–
Cc1cc(/C=N/n2c(COc3ccccc3C)nc3ccccc3c2=O)c(O)c([N+](=O)[O-])c1	active: 1 µM	–
CCCn1c(-c2ccc(F)cc2)nc2c(NCCN(CC)CC)nc(C)nc21	inconclusive [inhibitor, partial curve]	–
Cc1ncc(CO)c(CO)c1O	inconclusive [inhibitor, partial curve]	–
CCN(CC(=O)Nc1ccc2c(c1)OCCO2)C(=O)CC1CCCC1	–	inactive: -2.67%
O=C(CSC1=NCCS1)Nc1cccc2ccccc12	active: 14.1 µM	–
Nc1ccc2nc(-c3ccccc3)[nH]c2c1	inconclusive [inhibitor, partial curve]	–
CC1CCC(NC(=O)CC(C)(C)Cc2nc3ccccc3c(=O)[nH]2)CC1 (configuration not stated)	inconclusive [inhibitor, partial curve]	–
Brc1ccccc1-c1nnc2sc(Cc3ccccc3)nn12	active: 15.8 µM	–
O=C(O)c1ccccc1-c1c2ccc(=O)cc-2oc2cc(O)ccc12	inconclusive [inhibitor, single point]	–
CCC(SC1=Nc2ccccc2C2=NC(CC(C)C)C(=O)N12)C(=O)Nc1ccc2c(c1)OCO2 (configuration not stated)	inconclusive [inhibitor, partial curve]	–
O=C(c1cnc(-c2ccc(Cl)cc2)s1)c1ccc(Cl)cc1Cl	active: 35.5 µM	–
O=c1c(-c2ccccc2)nc2cncnc2n1C1CC1	inconclusive [inhibitor, partial curve]	–
CN(C)CCCNc1ccc(S(N)(=O)=O)cc1[N+](=O)[O-]	–	inactive: -0.537%
CC(C)[C@H](NC(=O)OC(C)(C)C)c1nnc(S(=O)(=O)Cc2c(F)cccc2Cl)o1	active: 5.01 µM	–
CC(=O)OCCNc1cc(Sc2nc3ccccc3[nH]2)c2nonc2c1[N+](=O)[O-]	active: 3.16 µM	–
O=c1cc(-c2ccccc2)[nH]c2nc3ccccc3n12	inconclusive [inhibitor, partial curve]	–
Cc1n[nH]c(=S)n1/N=C/c1ccc(OCc2ccc(Cl)cc2Cl)cc1	inconclusive [inhibitor, partial curve]	–
CC(NC(=O)c1ccc(Br)s1)C1CCCO1 (configuration not stated)	active: 31.6 µM	–
O=C(c1ccco1)N1CCN(c2ncnc3c2[nH]c2ccccc23)CC1	inconclusive [inhibitor, partial curve]	–
CCOC(=O)C1=NN(C(=O)c2ccc(C)cc2)C(O)(c2ccc(Cl)cc2)C1 (configuration not stated)	–	inactive: -14.6%
O=c1c(-c2nc3ccccc3s2)cccn1Cc1ccc(Cl)c(Cl)c1	inconclusive [inhibitor, partial curve]	–

SMILES	Potency	activity change, negative = inhibition
N#Cc1c(NC(=O)C2CC(c3ccccc3Cl)=NO2)sc2c1CCC2 (configuration not stated)	inconclusive [inhibitor, partial curve]	–
Cc1cccc2nc(C(F)(F)F)nc(=O)n12	inconclusive [inhibitor, partial curve]	–
CN(c1ccc(C(=O)NCC2CCCO2)cc1)S(=O)(=O)c1ccccc1 (configuration not stated)	active: 14.1 µM	–
CCC(=O)n1nc(-c2ccccc2)nc1SCC(=O)Nc1ccc(C)cc1	active: 7.94 µM	–
CC(=O)Nc1nonc1-c1nc2ccccc2n1CCC(C)C	inconclusive [inhibitor, partial curve]	–
O=C(OCC(=O)N1CCN(C(=O)c2ccco2)CC1)c1cc(-c2ccco2)nc2ccccc12	inconclusive [inhibitor, partial curve]	–
CCOC(=O)N1CCN(C(=S)NC(=O)c2ccnn2C)CC1	–	inactive: -26.4%
CC(C(=O)Nc1sccc1C(N)=O)N1C(=O)C2CC=CCC2C1=O (configuration not stated)	–	inactive: -7.49%
CCOC(=O)c1c(C(C)(C)C)oc2ccc(O)cc12	inconclusive [inhibitor, partial curve]	–
COC(=O)CSc1nnc(NC(=O)/C=C\c2ccc3c(c2)OCO3)s1	inconclusive [inhibitor, partial curve]	–
Cc1cc(=O)oc2cc(O)cc(O)c12	inconclusive [inhibitor, partial curve]	–
CC1(C)C2CC=C(/C=N/NC(=O)c3ccccc3O)C1C2 (configuration not stated)	inconclusive [inhibitor, single point]	–
O=c1[nH]cnc2nn(-c3ccccc3)nc12	inconclusive [inhibitor, partial curve]	–
CC1(C)CC(=O)c2c(Cc3ccccc3)n[nH]c2C1	inconclusive [inhibitor, single point]	–
CC[C@@H]1C(c2ccc(F)cc2)=NN(c2ccccc2)[C@H]1C(=O)N1CCOC1=O	inconclusive [inhibitor, single point]	–
CCCCn1c2nc3ccccc3nc2c2c(=O)n(CCC)cnc21	inconclusive [inhibitor, partial curve]	–
COc1cccc2[nH]c3c(N4CCC(C)CC4)ncnc3c12	inconclusive [inhibitor, full curve]	–
O=C(O)c1ccc2c(c1)C(=O)N(Cc1ccc3c(c1)OCO3)C2=O	active: 4.47 µM	–
Nc1nc(-c2ccco2)nn1C(=O)c1ccccc1	inconclusive [inhibitor, partial curve, poor fit]	–
CCCOc1ccc(-c2nc(C#N)c(N3CCc4ccccc4C3)o2)cc1	inconclusive [inhibitor, partial curve]	–
CCOC(=O)c1nn(-c2ccc3c(c2)CCN3C(C)=O)cc1O	inconclusive [inhibitor, partial curve]	–
O=C(CCNC(=O)c1ccccc1Cl)Nc1nc(-c2ccc3ccccc3c2)cs1	inconclusive [inhibitor, partial curve]	–
CC(Oc1ccc(Cl)cc1Cl)c1nc(-c2ccc(NC(=O)c3ccncc3)cc2)no1 (configuration not stated)	inconclusive [inhibitor, partial curve]	–
CCN(CC)c1ccc(/C=N/NC(=O)CN2CCCc3ccccc32)cc1	inconclusive [inhibitor, partial curve]	–
